Data reported in PubChem BioAssay AID1347120 (National Center for Advancing Translational Sciences (NCATS), 2019).
Out of some 390,000 compounds screened, about 930 (0.24%) were called active. The inconclusive results got no clear call from the source; some entries with a clear call stand among them for comparison. The call rests on the fitted dose curve; in most records, active means well fitted activation curve with a large enough effect; inconclusive means small, poorly fitted or top-dose-only effect; inactive means no such curve, though single readings can be large or run the other way. Where the call is inconclusive, the potency comes from a doubtful curve fit.

assay: qHTS for Suppressors of FUS Proteinopathy: Primary screen using FUS-linked yeast assay; further: nearly all actives have a fitted effect of over 55% in size;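 on growth rescue (activation): plate controls were DMSO vehicle for no effect and reference control for full effect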; settings: S. cerevisiae FUS-expressing, OD600, 24 h; Potency: growth rescue; growth rescue (activation): at 76.6 µM (top of the series)
Procedure, shortened: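 Yeast expressing FUS under galactose induction, OD 0.005 in 2% galactose medium; compounds in a dilution series, 24 h at 30C. Growth rescue by absorbance at 600 nm; CP55940 positive control, DMSO negative.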
Potency means the concentration at half of the fitted maximal effect; tags describe the fitted curve by direction and shape.

Structure (SMILES) | growth rescue (activation) | Potency
O=c1[nH]cc(F)c(=O)[nH]1 | inactive: -33.3% | 
Cc1ccc(C)c(CN2C(=O)c3ccccc3S(=O)c3ccc(C(=O)N(C)Cc4ccccc4)cc32)c1 (stereo unspecified) |  | inconclusive: 22.4 µM [activator, partial curve, poor fit]
Cc1cn([C@H]2C[C@H](O)[C@@H](/C=C/C(=O)NCCc3ccc(S(N)(=O)=O)cc3)O2)c(=O)[nH]c1=O | inactive: -0.225% | 
CCCCOc1ccc(CNC(=O)c2ccc(NC(=O)N3CCSc4ncccc43)cc2)cc1 | inactive: 20.6% | 
Cc1ccc(C)c(N2CCN(C(=O)c3cc4c(=O)n(Cc5cccs5)ccc4nc3C)CC2)c1 |  | inconclusive: 35.5 µM [activator, single point]
COc1ccc(CNc2nc3ccccc3n2CCN2CCOCC2)cc1 | inactive: 3.91% | 
O=C(C1CCN(S(=O)(=O)c2cccs2)CC1)N1CCN(c2ccccc2O)CC1 |  | inconclusive: 28.2 µM [activator, partial curve, poor fit]
CCOC(=O)CC(=O)CSc1nc2cc(C)ccc2cc1C |  | inconclusive: 50.1 µM [activator, single point]
Cc1ccc(C(=O)Nc2ccc3oc(-c4cccnc4)nc3c2)c(Cl)c1 | inactive: -0.438% | 
O=C(NCc1ccco1)c1cccc2c1C(=O)c1ccc(/C=C/c3ccccc3)cc1S2(=O)=O |  | inconclusive: 20 µM [activator, partial curve, poor fit]
CC(C)(C)c1ccc(S(=O)(=O)Nc2ccc(O)c(Sc3nc4ccccc4s3)c2)cc1 | inactive: 9.07% | 
CCN(CC)c1ccc2cc(-c3nc(-c4ccc(Cl)cc4Cl)cs3)c(=O)oc2c1 | inactive: -20.4% | 
O=C(C1=C(O)C(=O)N(CCN2CCOCC2)C1c1ccc(Br)cc1)c1cc2ccccc2o1 (stereo unspecified) |  | inconclusive: 31.6 µM [activator, partial curve, poor fit]
COc1ccc(-c2nc3c4ccccc4ccn3c2CN2CCCCC2)cc1 |  | inconclusive: 7.08 µM [activator, single point]
CCC(C)(C)C(=O)N1CCc2cc(S(=O)(=O)N(C)Cc3ccco3)ccc21 |  | inconclusive: 14.1 µM [activator, partial curve, poor fit]
Cc1cc(C)nc(SCc2nnc(SCC(=O)Nc3c(C)cccc3C)o2)n1 | inactive: 1.95% | 
CCOC(=O)N1CCC(NC(=O)c2ccc3c(c2)N(Cc2cc(C)ccc2C)C(=O)c2ccccc2S3(=O)=O)CC1 |  | inconclusive: 17.8 µM [activator, single point]
COC(=O)c1ccc(C23CC4(C2)[C@H](CN(Cc2cccnc2)[C@@H]4c2ccccc2)C3c2ccc(C(F)(F)F)cc2)cc1 (stereo partly specified) |  | inconclusive: 31.6 µM [activator, single point]
Cc1ccc(C(=O)OCc2cc(=O)n3nc(-c4cccs4)sc3n2)cc1 | inactive: 11.2% | 
Cc1cc(N/C=C\c2nnnn2-c2ccc(F)cc2)no1 |  | inconclusive: 7.08 µM [activator, single point]
COc1ccc(S(=O)(=O)N2CCOC23CCN(S(=O)(=O)c2c(C)cc(C)cc2C)CC3)cc1 |  | inconclusive: 50.1 µM [activator, single point]

Structure (SMILES) | growth rescue (activation) | Potency
CCOc1ccc(C(=O)c2cn(CC(=O)Nc3ccc4c(c3)OCCO4)c3ccc(OC)cc3c2=O)cc1 | inactive: -2.35% | 
COc1ccc2nc(NC(=O)C3CC(=O)N(c4ccc5c(c4)OCCO5)C3)sc2c1 (stereo unspecified) |  | inconclusive: 25.1 µM [activator, partial curve, poor fit]
O=C(Cc1c[nH]c2ccccc12)N1CCN(S(=O)(=O)c2cccc(Cl)c2Cl)CC1 |  | inconclusive: 12.6 µM [activator, partial curve, poor fit]
COc1cc(C2C(C#N)=C(N)Oc3cc(N(C)C)ccc32)cc2c1OCO2 (stereo unspecified) |  | inconclusive: 20 µM [activator, partial curve]
Cc1[nH]c2ccccc2c1C(=O)CCl | inactive: -27.7% | 
CN1C(=O)Cc2cc(S(=O)(=O)N3CCN(c4cccc(C(F)(F)F)c4)CC3)ccc21 |  | inconclusive: 35.5 µM [activator, single point]
O=C1c2ccccc2NC(c2cccc([N+](=O)[O-])c2)N1CCc1ccccc1 (stereo unspecified) |  | inconclusive: 50.1 µM [activator, single point]
COCCn1nnnc1C(c1cc2ccc(C)cc2[nH]c1=O)N(Cc1ccco1)Cc1cccs1 (stereo unspecified) |  | inconclusive: 39.8 µM [activator, partial curve, poor fit]
Cc1cccc(N(C(=O)c2snc(C(N)=O)c2N)C(C(=O)NC2CCCC2)c2ccc(C)o2)c1 (stereo unspecified) | inactive: 15.4% | 
Cc1ccc(-c2nc3cc(N)ccc3o2)cc1Br |  | inconclusive: 50.1 µM [activator, single point]
COc1cccc(CN2CC(C(=O)N3CCN(c4ccc(Cl)cc4)CC3)CCC2=O)c1 (stereo unspecified) |  | inconclusive: 22.4 µM [activator, partial curve, poor fit]
O=[N+]([O-])c1ccccc1/C=N/N1CCN(c2ccncc2S(=O)(=O)N2CCCCC2)CC1 | inactive: 19.9% | 
Cc1nc2sc(C(c3ccc(Cl)cc3)N3CCN(c4ccccc4F)CC3)c(O)n2n1 (stereo unspecified) |  | inconclusive: 17.8 µM [activator, single point]
COc1ccc(-c2csc(-c3nc(-c4ccc(Br)s4)cs3)n2)cc1F | inactive: -0.892% | 
N=C1C=CC=C2C1=NC1(CCCCC1)N2O |  | inconclusive: 31.6 µM [activator, partial curve, poor fit]
CCCC1=Nc2cc(C(=O)NCCc3ccc(OCC)cc3)ccc2Sc2ccccc21 |  | inconclusive: 15.8 µM [activator, partial curve, poor fit]
CSCC(=O)N1CCCC(CO)(Cc2ccccc2C)C1 (stereo unspecified) | inactive: 5.33% | 
COc1ccc(-c2c(C#N)c(N)nc3c2CCc2ccccc2-3)cc1OC |  | inconclusive: 4.47 µM [activator, full curve, poor fit]
COc1ccc(CN(C)C(=O)CNC(=O)c2ccc3ccccc3c2)c(OC)c1 | inactive: 15.7% | 
N#CCCn1cc(/C=C2\NC(=S)N(c3ccccc3)C2=O)c(-c2ccc(F)cc2)n1 |  | inconclusive: 39.8 µM [activator, partial curve, poor fit]
